Test results: paper PMC4336329 (PLoS ONE, 2015)
Hit rate of the full screen: of about 310,000 compounds, about 14,000 (4.5%) showed an effect of 50% or more. Effects have a minus sign here. Some of the results follow.

molecular target: human ether-à-go-go-related gene (hERG) potassium channel (human, UniProt Q12809); assay: primary screen, population patch clamp on CHO cells stably expressing hERG
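Note: peak tail current of the secondary pulse compared with the same well before compound.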

human ether-à-go-go-related gene (hERG) potassium channel, sequence (Q12809 whole entry, looked up): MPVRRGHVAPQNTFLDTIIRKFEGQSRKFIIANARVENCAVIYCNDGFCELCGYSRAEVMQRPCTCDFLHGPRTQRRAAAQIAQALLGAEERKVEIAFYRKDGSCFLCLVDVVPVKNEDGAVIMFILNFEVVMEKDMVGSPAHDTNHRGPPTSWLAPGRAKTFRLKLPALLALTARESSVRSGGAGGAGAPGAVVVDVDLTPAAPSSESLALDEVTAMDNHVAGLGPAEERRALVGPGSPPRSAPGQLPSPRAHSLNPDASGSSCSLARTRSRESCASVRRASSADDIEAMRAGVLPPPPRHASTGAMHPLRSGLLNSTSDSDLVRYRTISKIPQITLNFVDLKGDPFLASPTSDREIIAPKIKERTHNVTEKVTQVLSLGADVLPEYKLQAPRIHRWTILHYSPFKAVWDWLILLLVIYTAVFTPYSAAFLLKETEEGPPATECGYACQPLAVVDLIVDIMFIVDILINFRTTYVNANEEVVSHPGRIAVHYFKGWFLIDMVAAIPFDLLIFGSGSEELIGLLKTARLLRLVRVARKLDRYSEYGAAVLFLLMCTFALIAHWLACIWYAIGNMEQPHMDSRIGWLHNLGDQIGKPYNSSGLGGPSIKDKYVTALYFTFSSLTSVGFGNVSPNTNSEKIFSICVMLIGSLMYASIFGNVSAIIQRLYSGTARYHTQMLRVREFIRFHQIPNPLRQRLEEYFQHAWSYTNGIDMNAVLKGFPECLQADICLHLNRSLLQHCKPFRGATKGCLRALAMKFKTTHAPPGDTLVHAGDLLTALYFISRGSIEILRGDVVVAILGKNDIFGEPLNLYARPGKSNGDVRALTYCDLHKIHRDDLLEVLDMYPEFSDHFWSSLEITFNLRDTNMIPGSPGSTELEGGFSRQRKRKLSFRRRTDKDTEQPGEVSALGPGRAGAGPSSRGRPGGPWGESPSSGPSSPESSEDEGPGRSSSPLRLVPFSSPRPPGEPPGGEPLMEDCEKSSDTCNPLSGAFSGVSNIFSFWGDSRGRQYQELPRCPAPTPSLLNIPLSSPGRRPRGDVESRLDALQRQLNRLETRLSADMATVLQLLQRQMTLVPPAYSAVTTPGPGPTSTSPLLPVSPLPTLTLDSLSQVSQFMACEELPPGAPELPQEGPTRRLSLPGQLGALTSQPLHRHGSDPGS

| Compound | hERG current change (%, negative = inhibition) at 10uM [%] |
| --- | --- |
| O=C(Cn1nc(-c2cccc(Cl)c2)ccc1=O)Nc1cccnc1 | -8.01 |
| O=C(NCC(c1cccnc1)N1CCOCC1)c1ccco1 (stereo not drawn) | 16.7 |
| O=C(NN=C1CCCC1)c1ccccc1O | 24.8 |
| Cc1cc(C)c(C#N)c(Nc2ccccc2Cl)n1 | 9.23 |
| CC(=O)NC(=S)Nc1ccc2oc(-c3cc(F)c(F)cc3Cl)nc2c1 | 25.4 |
| C/C=C/c1ccc(Oc2nnnn2-c2ccc(C(N)=O)cc2)c(OC)c1 | 1.17 |
| CCOC(=O)Cc1csc(NS(=O)(=O)c2ccc(Br)cc2)n1 | -0.344 |
| O=S(=O)(NCc1ccccc1)c1ccc(S(=O)(=O)N(Cc2ccccn2)Cc2ccco2)cc1 | 15.1 |
| O=C(CCn1c(=S)oc2ccccc21)NCCC1=CCCCC1 | 1.51 |
| CCOC(=O)c1c(C)[nH]c(C)c1C(=O)COC(=O)c1ccccc1O | -16 |
| CCOc1ccc(C(=O)COc2ccc(NC(C)=O)cc2)cc1 | 13.2 |
| O=C(CCn1cccn1)Nc1ccc(-c2ccno2)cc1 | 14.4 |
| COc1ccc(OC)c(/C=N/Nc2nncn2/N=C/c2cc(OC)ccc2OC)c1 | -26.6 |
| COCCCNC(=S)NNC(=S)Nc1ccc(OC)cc1 | 11.6 |
| Cc1cc(C)c2c(-n3cccc3)c(C(=O)NNS(=O)(=O)c3ccccc3)sc2n1 | 8.4 |
| CCOc1ccc(NS(=O)(=O)c2ccc3[nH]cc(C(=O)NCCOC)c(=O)c3c2)cc1 | 12.4 |
| COc1ccccc1Cn1c(-c2ccco2)nc2nc3ccccc3nc21 | -4.67 |
| COc1ccc2nc(C3CCCCC3)nc(C3CCCCC3)c2c1 | 10.7 |
| Cc1ccc(S(=O)(=O)N2CCN(C(=O)Cn3c(=O)cnc4ccccc43)CC2)cc1 | -7.34 |
| CCCn1nc(NS(=O)(=O)c2ccc(F)cc2)c2cc3ccccc3nc21 | 18.1 |
| C=CCc1c(C)nc(C)nc1N/N=C/c1ccccc1 | -19.2 |
| COc1c(O)cc2c(c1O)C1OC(CO)C(O)C(O)C1OC2=O.O (stereo not drawn) | -5.86 |

| Compound | hERG current change (%, negative = inhibition) at 10uM [%] |
| --- | --- |
| CCCc1cc(=O)oc2cc(C)cc(OCC(=O)NCc3ccncc3)c12 | -69.5 |
| Cc1ccc(OCC(=O)NCCS(=O)(=O)N2CCN(c3ccccc3)CC2)cc1 | -10.1 |
| CCOc1cc(/C=C2/C(=N)N3C=CSC3=NC2=O)ccc1OCCCOc1ccccc1C | 5.99 |
| CCCN1CCc2c(sc(NC(=O)c3ccc(S(=O)(=O)N4CCN(C(=O)OCC)CC4)cc3)c2C(N)=O)C1 | -2.25 |
| O=S(=O)(c1ccc(Br)cc1Cl)N1CC[NH+](CCO)CC1.[Cl-] | 3.35 |
| Cc1ccc(Nc2nnc(-c3ccccc3N)o2)cc1C | 11.9 |
| CCOC(=O)C1CCN(C(=O)CCNS(=O)(=O)c2ccc3c(c2)CCN3C(=O)CC)CC1 | 7.82 |
| Cc1cc(Cl)ccc1Oc1ccc(C(N)=O)cc1[N+](=O)[O-] | 0.613 |
| O=C(CN1C(=O)COc2ccc(Cl)cc21)Nc1ccc2c(c1)OCCO2 | 18.3 |
| COc1ccc(-c2csc(NC(=O)CCS(=O)(=O)c3ccccc3)n2)c(OC)c1 | 9.71 |
| COC(=O)c1oc2ccc(Br)cc2c1-n1cccc1 | 9.07 |
| CC1(c2cccc(Br)c2)NC(=O)N(CC(=O)Nc2ccc(F)cc2)C1=O (stereo not drawn) | -3.61 |
| S=C(c1ccc(N2CCCC2)cc1)N1CCCCC1 | 2.75 |
| CCn1c(SCC(=O)N2CCCCC2)nc2c(c1=O)SC(C)C2 (stereo not drawn) | 10.1 |
| COc1ccc(/C=N/N2CCOCC2)cc1O | 8.19 |
| Cc1c(C)c(C)c(C(=O)CCc2cccc(NC(=O)CCC(=O)O)c2)c(C)c1C | 9.99 |
| N#C/C(=C\c1ccc2c(c1)OCCO2)C(=O)Nc1nccs1 | 14.2 |
| Cc1cc([N+](=O)[O-])nn1CCCC(=O)Nc1cc(Oc2ccccc2)cc([N+](=O)[O-])c1 | -2.84 |
| CCc1noc(C)c1C(=O)NNC(=O)c1cc(OC)cc(OC)c1 | 5.15 |
| O=C(CC(C(=O)O)C1CCCO1)NCCc1ccc2c(c1)OCO2 (stereo not drawn) | -8.7 |
| COc1ccc2ccccc2c1/C=N/NC(=O)c1cccc(Br)c1 | 3.3 |
| CC(=O)NCC(=O)OCC(=O)c1ccc(Br)cc1 | -6.8 |

| Compound | hERG current change (%, negative = inhibition) at 10uM [%] |
| --- | --- |
| Cc1cc(N2C(=O)C(O)=C(C(=O)c3ccco3)C2c2ccc(O)cc2)no1 (stereo not drawn) | 20.7 |
| Cc1cc(=O)[nH]c(SCC(=O)O)c1C#N | 23.5 |
| Cc1cc(C(=O)NC2CCCCC2)c2cc(F)ccc2n1 | 7.5 |
| CC(C)C(NS(=O)(=O)c1cccs1)C(=O)N1CCc2ccccc2C1 (stereo not drawn) | 5.66 |
| Cc1ccc(N2C(=O)N(CC(=O)Nc3cc(F)ccc3C)C(=O)C2C)cc1 (stereo not drawn) | 13 |
| COCCn1c(N)c(N(Cc2ccccc2)C(=O)CSCC(=O)Nc2ccc(C)cc2)c(=O)[nH]c1=O | 3.11 |
| Cc1ccccc1N1CCN(C(=O)CN2C(=O)c3ccccc3C2=O)CC1 | -11.8 |
| Cc1cc(C)c(C#N)c(SCS(=O)c2ccc(C(C)(C)C)cc2)n1 (stereo not drawn) | -28.5 |
| Cc1c(/C=N/NC(=O)c2cc(Br)ccc2O)c(=O)n(C)c(=O)n1C | 3.23 |
| Cc1ccc(C)c(S(=O)(=O)N2CCCOC2CNC(=O)C(=O)NCCC2=CCCCC2)c1 (stereo not drawn) | 9.43 |
| COc1cc(CCCN2C(N)=NC[C@@H]2Cc2ccccc2)cc(OC)c1OC | 13.3 |
| O=C(O)CC1=C(Nc2ccccc2)C(=O)N(c2ccccc2)C1c1ccc(F)cc1 (stereo not drawn) | -10.6 |
| Cc1cc(NC(=O)CSCCc2ccncc2)no1 | 8.74 |
| O=C(Nc1ccc2oc(=O)ccc2c1)c1ccc2ccccc2c1 | 19.4 |
| COc1ccc(C2C3=C(CCCC3=O)NC3=C2C(=O)c2ccccc23)cc1 (stereo not drawn) | 3.5 |
| CCOc1ccc(C(C)=O)cc1CC(C(N)=O)C(N)=O | 14.6 |
| Cl.N=C(N)SCc1ccc(O)c([N+](=O)[O-])c1 | -0.169 |
| Cc1cc(C)cc(C(=O)OCC(=O)NC2CCCC2)c1 | -1.77 |
| Oc1c(N=NC(=S)Nc2ccccc2F)c2ccccc2n1Cc1ccc(Cl)cc1 | 20 |
| CCC(=O)NC(=S)Nc1ccc(N2CCN(C(=O)c3ccc(Cl)cc3)CC2)cc1 | -34.1 |
| COc1cccc(C2=CC(c3ccc(C)cc3)n3ncnc3N2)c1 (stereo not drawn) | -52.4 |
| COCCCNC(=O)c1cc2cc([N+](=O)[O-])cc(OC)c2oc1=O | 13.1 |

| Compound | hERG current change (%, negative = inhibition) at 10uM [%] |
| --- | --- |
| O=C(NCc1ccccc1)C1(c2ccccc2)CCN(S(=O)(=O)c2ccccc2)CC1 | -17.1 |
| COc1ccc(NS(=O)(=O)c2ccc(C)c(C(=O)N(C)CC(=O)Nc3cccc(OC)c3)c2)cc1 | -9.42 |
| S=c1[nH]nc([C@@H]2C[C@H]2c2ccccc2)n1-c1ccccc1Cl | 11.1 |
| COc1ccc2[nH]c(C)c(C(=O)CN(C)C)c2c1 | 7.78 |
| O=C(NCCO)c1ccc(CSc2nc3ccccc3[nH]2)cc1 | 3.89 |
| O=C1CN(C(=O)c2c(F)cccc2F)C(c2ccc(F)cc2)c2cc(Br)ccc2N1 (stereo not drawn) | -35.8 |
| O=C(NC1(C(F)(F)F)N=C2SCCN2C1=O)C1CCCCC1 (stereo not drawn) | 12.5 |
| CC1CN(C(=O)/C=C/c2cccc([N+](=O)[O-])c2)CC(C)O1 (stereo not drawn) | -15.4 |
| Cc1cccc(S(=O)(=O)Nc2cccc3c2C(=O)c2ccccc2-3)c1 | 6.45 |
| CC(NC(=S)NCc1ccc(F)cc1)C12CC3CC(CC(C3)C1)C2 (stereo not drawn) | 18.3 |
| O=C1NC(=O)N(c2ccccc2F)C(=O)/C1=C/c1ccc(Oc2ccc([N+](=O)[O-])cn2)cc1 | -0.542 |
| COc1cccc(=O)c2c(C)n(C)c(C)c12 | -24.7 |
| Cc1cccc(C)c1NC(=O)c1cccc(N2C(=O)C3CCC(C)CC3C2=O)c1 (stereo not drawn) | 17.3 |
| COc1ccc(N2CC(=O)N(c3ccc(OC)c(OC)c3)CC2=O)cc1OC | 2.26 |
| Cc1ccnc(SCc2ccc(C(=O)O)cc2)n1 | 11.1 |
| O=c1[nH]c(CN2CC=C(c3ccccc3)CC2)nc2cc(C(F)(F)F)ccc12 | -8.61 |
| CC(C)(C)c1nc2ccc(NS(=O)(=O)c3ccc(F)c(F)c3F)cc2[nH]1 | 10.6 |
| COc1ccc(N2CC(C(=O)Nc3cccc(OC(C)C)c3)CC2=O)cc1 (stereo not drawn) | -9.29 |
| O=S(=O)(NC1CC1)c1ccc(S(=O)(=O)N2CCN3CCCC3C2)cc1 (stereo not drawn) | -10 |
| Cc1ccccc1NC(=O)c1cccc(S(C)(=O)=O)c1 | 16 |
| COc1ccc(-n2nc(C(=O)NCC(=O)N3CC(C)CC(C)C3)c3ccccc3c2=O)c(OC)c1 (stereo not drawn) | -6.68 |
